Assay results: article PMC4336329 (PLoS ONE, 2015)
About 2,200 (0.71%) of roughly 310,000 compounds showed an effect of 50% or more. Effects have a minus sign here. The list shows a part of the results.

target: human ether-à-go-go-related gene (hERG) potassium channel (human, UniProt Q12809); assay: primary screen, population patch clamp on CHO cells stably expressing hERG
Sequence (Q12809 whole entry, looked up): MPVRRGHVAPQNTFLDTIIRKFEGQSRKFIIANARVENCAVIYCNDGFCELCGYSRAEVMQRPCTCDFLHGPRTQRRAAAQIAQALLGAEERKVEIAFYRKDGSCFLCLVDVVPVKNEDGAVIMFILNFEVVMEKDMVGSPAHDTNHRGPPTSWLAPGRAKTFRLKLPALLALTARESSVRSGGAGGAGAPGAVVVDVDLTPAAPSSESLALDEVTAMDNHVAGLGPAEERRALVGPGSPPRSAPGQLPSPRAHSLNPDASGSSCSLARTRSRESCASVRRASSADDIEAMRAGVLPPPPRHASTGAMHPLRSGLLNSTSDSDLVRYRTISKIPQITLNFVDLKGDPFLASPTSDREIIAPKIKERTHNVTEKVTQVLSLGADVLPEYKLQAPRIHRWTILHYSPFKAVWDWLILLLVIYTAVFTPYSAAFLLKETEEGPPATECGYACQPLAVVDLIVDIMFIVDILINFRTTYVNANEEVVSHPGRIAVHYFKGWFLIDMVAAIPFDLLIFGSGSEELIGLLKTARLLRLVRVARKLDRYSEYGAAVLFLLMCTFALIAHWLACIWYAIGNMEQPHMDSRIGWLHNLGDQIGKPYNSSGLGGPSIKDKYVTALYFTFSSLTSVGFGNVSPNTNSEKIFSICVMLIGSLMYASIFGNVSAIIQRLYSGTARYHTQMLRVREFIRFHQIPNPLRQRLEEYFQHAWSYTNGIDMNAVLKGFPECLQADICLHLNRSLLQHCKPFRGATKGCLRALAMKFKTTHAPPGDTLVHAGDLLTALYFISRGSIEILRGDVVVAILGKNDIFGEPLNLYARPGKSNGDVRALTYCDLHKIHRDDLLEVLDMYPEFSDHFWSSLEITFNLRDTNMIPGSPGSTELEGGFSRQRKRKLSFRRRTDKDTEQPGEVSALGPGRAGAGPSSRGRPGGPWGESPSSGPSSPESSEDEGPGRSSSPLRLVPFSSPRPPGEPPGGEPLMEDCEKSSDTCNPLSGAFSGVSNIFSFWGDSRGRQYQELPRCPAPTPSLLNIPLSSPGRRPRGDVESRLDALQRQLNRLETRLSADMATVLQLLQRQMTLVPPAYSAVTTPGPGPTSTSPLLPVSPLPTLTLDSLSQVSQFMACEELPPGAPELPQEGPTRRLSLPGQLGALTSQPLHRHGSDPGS

Row | Compound | hERG current change (%, negative = inhibition) at 1uM [%]
1 | Cn1c(CCNC(=O)c2ccco2)nc2cc(NS(=O)(=O)c3ccccc3)ccc21 | -14
2 | O=C1CN(C(=O)CNC(=O)c2cccc(Cl)c2)c2ccccc2N1 | 6.21
3 | CCCCC1C(=O)CC[C@H]2[C@@H]1CC(=O)[C@@H]2C/C=C\CCCC(=O)O (some centres unmarked) | 5.85
4 | Cn1c(SCC(=O)NC(C)(C)C)nnc1-c1ccc(C(C)(C)C)cc1 | 8.15
5 | COc1cc(CCC(=O)Oc2ccc(C(C)=O)cc2)cc(OC)c1OC | 3.59
6 | Cc1ccc(-c2cnn(-c3cccc(C(F)(F)F)c3)c2N)cc1 | 1.51
7 | Brc1ccc(CN2CCN(Cc3c[nH]c4ccccc34)CC2)cc1.O=C(O)C(=O)O | -22
8 | O=C(NNS(=O)(=O)c1ccccc1[N+](=O)[O-])c1cccc(Cl)c1 | 4.42
9 | NS(=O)(=O)c1ccc(CNC(=O)CSc2nc3ccc(Cl)cc3[nH]2)cc1 | 15.3
10 | CN1CCc2c(sc(NC(=O)Cc3ccccc3)c2C#N)C1.Cl | 1.89
11 | CCOc1ccc(OCC)c(-c2c(=O)n(OCc3ccccc3C(=O)OC)c3ccccc3[n+]2[O-])c1 | -1.98
12 | CN(CC(=O)NC1CCCCCC1)S(=O)(=O)c1ccccc1 | -5.08
13 | CC1(C)NC(=O)N(CC(=O)OCC(=O)Nc2cccc(S(N)(=O)=O)c2)C1=O | -0.863
14 | Cc1csc(NC(=O)CSc2ccc(-c3ccccn3)nn2)n1 | -8.19
15 | Cc1ccc2c(c1)N(CC(=O)NCCc1ccc(Cl)cc1)C(=O)c1cccnc1O2 | -13.2
16 | Cc1ccc(C)c(C(=O)C(C)OC(=O)c2cccn2C)c1 (centres unmarked) | 13.2
17 | CC(=O)Nc1ccc(S(=O)(=O)N(CCCN2CCOCC2)Cc2cccs2)cc1.O=C(O)C(=O)O | 5.93
18 | CCc1ccc(-c2cc(C(=O)Nc3ccc(S(=O)(=O)NC(C)=O)cc3)c3ccccc3n2)cc1 | 6.96
19 | COc1ccc2cc(C(=O)c3ccccc3)c(=O)oc2c1 | 12.5

Row | Compound | hERG current change (%, negative = inhibition) at 1uM [%]
20 | CC(C)c1csc(CN2CCN(Cc3ccccc3)C(CCO)C2)n1 (centres unmarked) | 10.1
21 | CN(C)CCCCCNCCCNC(=O)/C=N\O | 14.7
22 | Cc1ccc(S(=O)(=O)N2CCC(C)CC2)cc1C(=O)NCCN1CCOCC1 | 12.4
23 | CC1CN(S(=O)(=O)c2cccc(C(=O)NN3CCN(C)CC3)c2)CC(C)O1.Cl (centres unmarked) | 3.24
24 | CCN(CC)P(c1n(C)cc[n+]1C)N(CC)CC.[I-] | 5.31
25 | O=C(O)c1cccc(N/N=C/c2cc(Br)cc(Br)c2O)c1 | 11.5
26 | Cc1ccc(C(=O)Nc2ccccc2C(=O)O)cc1S(=O)(=O)NC1CCCCC1 | -17.7
27 | N/C(=N\c1nc(CSc2ccc(Cl)cc2)cc(=O)[nH]1)Nc1ccccc1C(F)(F)F | 5.05
28 | COc1ccc(N/C(=C(/C(Cl)=C(Cl)Cl)[N+](=O)[O-])n2nnc3ccccc32)cc1 | 10.8
29 | CC(C)OC(=O)c1sc2nc3c(cc2c1N)C(=O)CCC3 | 5.21
30 | Oc1ccc(-c2cnns2)c(O)c1 | -4.1
31 | CN(CC1CCN(CCc2cccc(C(F)(F)F)c2)CC1)C(=O)c1ccc(F)cc1F | -35.9
32 | COc1ccc(S(=O)(=O)N2CCOC2CNC(=O)C(=O)NCc2ccccc2OC)cc1 (centres unmarked) | 7.72
33 | CCOC(=O)c1cccc(NS(=O)(=O)c2c(C)[nH]c(=O)[nH]c2=O)c1 | 5.47
34 | O=C(NCCC1=CCCCC1)C1CCN(c2nc3ccccc3o2)CC1 | 6.7
35 | CN(C(=O)c1ccc(NC(=O)Cc2cccc(NC(=O)C3CCN(C(=O)c4ccccc4)CC3)c2)cc1)C1CCCC1 | 8.08
36 | CCN1C(N(C)CCc2cccs2)=N[C@@H](c2ccccc2)C(C(=O)OC)=C1C | -21.4
37 | N#C/C(=C\c1c(N2CCCCCC2)nc2ccccn2c1=O)C(N)=O | 11.7
38 | CN(c1ccccc1)S(=O)(=O)c1ccc(NC(=O)C2CC2)cc1 | 8.45

Row | Compound | hERG current change (%, negative = inhibition) at 1uM [%]
39 | Cc1cccc(NC(=O)C(C)N2C(=O)c3ccccc3S2(=O)=O)n1 (centres unmarked) | 5.26
40 | O=S(=O)(CCc1ccccc1)N1CCOCC1 | 10.9
41 | COCCNC(=O)/C(C#N)=C/c1cn(CC(=O)NCc2ccco2)c2ccccc12 | 2.31
42 | COc1cccc(CN2CC(C(=O)NCc3ncc(C)[nH]3)CCC2=O)c1 (centres unmarked) | 16.9
43 | CC(=O)Nc1cccc(NS(=O)(=O)c2cc3c4c(c2)CCN4C(=O)CC3)c1 | -5.08
44 | CCc1ccc(Nc2c([N+](=O)[O-])c(=O)oc3ccccc23)cc1 | 11.5
45 | Cc1ccc(CSc2ncccc2C(=O)O)cc1 | 10.9
46 | CN(C)c1ccc(NC(=O)CSc2nc3c(c(=O)[nH]2)CCCC3)cc1 | -12.3
47 | O=C(O)c1cc(-c2ccco2)[nH]n1 | 3
48 | Cc1ccc2oc(=O)c3cnn(CC(=O)NCCCOC(C)C)c3c2c1 | 3.01
49 | Fc1cccc(CSc2nc3ncccc3[nH]2)c1 | 17.1
50 | CC(=O)NCc1ccc(C(=O)CSc2nnc(C3CC3)n2C2CC2)cc1 | 13.5
51 | CCc1c(C)nc(SCC(=O)NC2CCCC2)[nH]c1=O | 19.8
52 | COC(CNS(=O)(=O)c1ccc(Cl)cc1)c1ccccc1 (centres unmarked) | 6.16
53 | Cc1ccc(OCCn2c(=O)n(C)c3ccccc32)cc1 | 11
54 | CCOc1ccccc1-c1noc(CCCC(=O)NC2CCCCC2)n1 | 11.1
55 | COc1ccc(CNC(=O)C2CCCN(S(=O)(=O)c3c(C)n[nH]c3C)C2)cc1 (centres unmarked) | 0.393
56 | O=C(NC(Cc1ccccc1)C(=O)O)OCC1c2ccccc2-c2ccccc21 (centres unmarked) | 13.1
